Experimental data: the RNAGym collection of RNA variant scans (doi:10.1073/pnas.2313332121)
Variants at the floor of the assay are shown more often than the library holds them.

B1: TPR 5TU (parent)
chain: GGAUCUUCUCGAUCUAACAAAAAAGACAAAUCUGCCACAAAGCUUGAGAGCAUCUUCGGAUGCAGAGGCGGCAGCCUUCGGUGGCGCGAUAGCGCCAACGUUCUCAACUAUGACACGCAAAACGCGUGCUCCGUUGAAUGGAGUUUAUCAUG

Variants of: B1
Assay: polymerase ribozyme fitness, log enrichment relative to wild type (log ratio); higher = more active; in vitro selection for triplet polymerase activity
Procedure, shortened: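 Both subunits of a heterodimeric triplet polymerase ribozyme were given their own mutant library, built by PCR and transcribed. Each library was annealed with a biotinylated primer, the partner subunit and triplets, incubated frozen at −7 °C, and its extended constructs gel-excised, captured on streptavidin beads and amplified by RT-PCR, all in one round done in triplicate. Fitness is the logarithm of genotype enrichment relative to wild-type enrichment, with replicates averaged by inverse-variance weighting. That logarithm is base 2, and Illumina-sequenced genotypes needed ≥10 input reads and ≥1 read per output.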

Row | Variant | polymerase ribozyme fitness (log ratio)
1 | A3U C8G | ≤ -4.2
2 | A3G C57U G81A G84A C85G C93G C123U G133U A147C U151G G152C | ≤ -4.2
3 | A3G A21C U78G U90G C131U G141C | ≤ -4.2
4 | A3G A16U A39G C75U C96A G143C | ≤ -4.2
5 | A3C U9A G11A C35G C75A G117A U145C | ≤ -4.2
6 | A3C U13A C36U A49C U61A G70U C96G U111C U130G | ≤ -4.2
7 | A3G A47G U61A G94U C99A C108U U135G | ≤ -4.2
8 | A3U A21G U33G C43G C95G A113C A147U | ≤ -4.2
9 | A3U A16C C27U A47U C99G C105U A119G U144C | ≤ -4.2
10 | A3C U4C A19C G25C C75U C96G A107G C123U G128U U148A | ≤ -4.2
11 | A3C U101G C105U A138C | -4.17
12 | A3C U6A U13G G50A C76U A137C G141C | ≤ -4.2
13 | A3U C10U A39U U55A C57U G59C C93U C149A | ≤ -4.2
14 | A3U A49G C105U C108G | ≤ -4.2
15 | A3U C57A G86A U101G U102G C118U A150U | ≤ -4.2
16 | A3G C57G A106G U109C | ≤ -4.2
17 | A3G A30U A41G A91U A110C G124A U139G U146C | ≤ -4.2
18 | A3C C36G A60C G83U C118G U151C | ≤ -4.2
19 | A3G G11A C32U G84A G117A U151A | ≤ -4.2
20 | A3C U4G U9A A40G G48U G50A U56A G86U C131U | ≤ -4.2
21 | A3U A12G C43U C54U G71U C79A A120C | ≤ -4.2

Row | Variant | polymerase ribozyme fitness (log ratio)
22 | A3C C87G A97U | ≤ -4.2
23 | A3U C27U U44A G94A C95U A107C A147U C149G | ≤ -4.2
24 | A3U A12C A29G A52C A73G C87U A97U | ≤ -4.2
25 | A3C C85U C96U | -0.556
26 | A3G A17C G143C | -2.6
27 | A3C G46A A47G G86A C99A A120G A121U | ≤ -4.2
28 | A3G G34U C57A G86A G136U G141C | ≤ -4.2
29 | A3G A12G A29G C38U G42C G86U A138C | ≤ -4.2
30 | A3G U44G C57A G59U G68C C87G | ≤ -4.2
31 | A3G A137U U146G | ≤ -4.2
32 | A3C G86A C125U | -2.79
33 | A3C U13G A23U C87U A91U C96U | ≤ -4.2
34 | A3C U7C A47C U55A G59A A73U U82G U146C | ≤ -4.2
35 | A3U C18U G50A G68A C76A G92C C93U | ≤ -4.2
36 | A3U C14G G50C C85U G88A | ≤ -4.2
37 | A3G U13C A28G C54G U56G G84A A110C | ≤ -4.2
38 | A3C C5G C54U U56G A60G C63U C116U C131G | ≤ -4.2
39 | A3C C5U C75A G86C C87U A98G C123U U145A | ≤ -4.2
40 | A3C U44G U55G U56A A66G C96U A97U G100A U148A | ≤ -4.2
41 | A3U A91G G100U U101G C132G U139C | ≤ -4.2
42 | A3U C18U A20C A30C A41C C69U G94A C103G | ≤ -4.2

Row | Variant | polymerase ribozyme fitness (log ratio)
43 | A3U C5U A24G C27A A29C A52C G84A U104G U127A | ≤ -4.2
44 | A3U A29U U31A C36G G68U G84U G117C | ≤ -4.2
45 | A3C G11U A23C A60U C72G C96A C132A | ≤ -4.2
46 | A3U A37C A49G C93U | ≤ -4.2
47 | A3C A121U | 0.339
48 | A3G C35A A37U G48U U78A A110U C116A A120C G133C A137U | ≤ -4.2
49 | A3G A60C C93U U145G | -2.53
50 | A3U A16C A60G C87A U102G C108G U127A U145G | ≤ -4.2
51 | A3G A20U C27G G42A U56A U77G G86A G117U G133C | ≤ -4.2
52 | A3G A22U A40U U44C C96G C116U U134C | ≤ -4.2
53 | A3U C5G A19U C36U G83A | -3.1
54 | A3C A29C G58U C85G A137C G152A | ≤ -4.2
55 | A3G C35A C72G A73U U77G G92A G133C U148C | ≤ -4.2
56 | A3U C14G A30U U55G C95U | ≤ -4.2
57 | A3U A23U G94A | ≤ -4.2
58 | A3U A21G U56C A64C C93A C96U C99A | ≤ -4.2
59 | A3U A47C A52C C85U C132U | ≤ -4.2
60 | A3C C87A G88A A137U | ≤ -4.2
61 | A3U A19U A49U C51U G68A C93U C125A | ≤ -4.2
62 | A3U A28U G50C U56A G68A C96U G136U U139G | ≤ -4.2
63 | A3G C5U C32A G42U G100A C103G | ≤ -4.2

Row | Variant | polymerase ribozyme fitness (log ratio)
64 | A3U A12U A16C A52U A91C C93U C95U G143A | ≤ -4.2
65 | A3U C14U A24G A47C C103G | ≤ -4.2
66 | A3G C36U U45A G46C A47G U55A U61A U102A U111G | ≤ -4.2
67 | A3C G11A A19C C54U A122U U135A G143A | -3.73
68 | A3G G59U C69U A91C A97G | ≤ -4.2
69 | A3G C10A G11C A23U A49C A147U | ≤ -4.2
70 | A3C A30G A49G G74A G86U G143U | ≤ -4.2
71 | A3C U7G C14U A52G | -3.28
72 | A3C U15A A19U C75U C87U | -1.71
73 | A3C A60C G71A C85A G143C | ≤ -4.2
74 | A3C C14G C35U C38U G74U C129U A142C | ≤ -4.2
75 | A3U C32G A49U | ≤ -4.2
76 | A3C A22U A91U G92U G143C | ≤ -4.2
77 | A3G U7G A21U A23G A29G C95G | ≤ -4.2
78 | A3U A23C | -3.76
79 | A3C C18G G25C C72A C85A U139C G140U | ≤ -4.2
80 | A3C G58A G94A | -0.578
81 | A3C G42C C54U U55C C57G C96G G128A | ≤ -4.2
82 | A3U A12G C87G | -4.02
83 | A3G C38G G42U G59C G70C U78C C87A | ≤ -4.2
